Laboratory results taken from the supplement of paper PMC3334620.
In all, about 33,000 sequences were measured (“E-score (-0.5 to 0.5)”: median about -0.043, highest 2% from about 0.37 on). The list shows a part of the results.

biological target: T1, Upc2 (UniProt Q12151); assay: PBM E-score (8-mer binding enrichment) (E-score (-0.5 to 0.5)); higher = stronger / more preferred TF binding; most listed sequences are background and not binding sites; conditions: protein concentration: 200 nM; construct: GST-full length
T1 sequence: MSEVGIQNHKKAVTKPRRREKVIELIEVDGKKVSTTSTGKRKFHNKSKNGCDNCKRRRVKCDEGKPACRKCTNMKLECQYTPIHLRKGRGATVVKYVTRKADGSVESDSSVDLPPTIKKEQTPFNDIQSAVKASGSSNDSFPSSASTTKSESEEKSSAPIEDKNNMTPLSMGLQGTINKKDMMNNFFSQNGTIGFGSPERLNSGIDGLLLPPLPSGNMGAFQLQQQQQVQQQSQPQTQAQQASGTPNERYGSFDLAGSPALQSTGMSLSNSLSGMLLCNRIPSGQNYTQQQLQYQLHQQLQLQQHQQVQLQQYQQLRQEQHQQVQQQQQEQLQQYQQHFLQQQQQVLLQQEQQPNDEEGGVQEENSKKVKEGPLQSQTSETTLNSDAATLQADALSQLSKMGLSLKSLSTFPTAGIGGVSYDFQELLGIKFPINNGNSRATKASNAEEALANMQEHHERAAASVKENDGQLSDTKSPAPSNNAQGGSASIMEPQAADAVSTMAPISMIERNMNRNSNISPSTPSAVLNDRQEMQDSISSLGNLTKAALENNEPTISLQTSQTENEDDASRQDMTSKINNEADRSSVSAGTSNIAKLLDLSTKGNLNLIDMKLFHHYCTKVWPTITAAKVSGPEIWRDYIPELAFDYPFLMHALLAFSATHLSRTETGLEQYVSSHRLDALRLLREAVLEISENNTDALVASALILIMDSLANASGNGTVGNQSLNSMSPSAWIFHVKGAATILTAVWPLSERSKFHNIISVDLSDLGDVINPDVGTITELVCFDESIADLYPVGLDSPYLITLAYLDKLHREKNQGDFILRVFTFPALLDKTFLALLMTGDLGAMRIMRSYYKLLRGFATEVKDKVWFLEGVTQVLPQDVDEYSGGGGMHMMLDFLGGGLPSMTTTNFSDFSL
Method: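 Universal 'all 10-mer' protein binding microarrays (Agilent AMADID 015681) probed with GST-tagged S. cerevisiae TFs (full-length or DBD) made by in vitro transcription/translation (PURExpress), about 100-200 nM. Bound TF was detected with fluorescent anti-GST. Each ungapped 8-mer (which stands for itself and its reverse complement) is scored by the PBM enrichment score (E-score), a modified Wilcoxon-Mann-Whitney statistic from -0.5 to +0.5, computed with the Universal PBM Analysis Suite. Scale: above 0.35 generally sequence-specific binding.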

Row | Sequence | PBM E-score
1 | GAGAAGAC | -0.0478
2 | AGACTAAA | -0.0936
3 | CACGCCAG | -0.0201
4 | ATCCGAGC | 0.208
5 | CCACGAAG | -0.115
6 | CTTTACCA | -0.146
7 | CCGTGCCG | 0.137
8 | CGTACAAA | 0.421
9 | CCTGCCCG | -0.228
10 | AGAATGTG | -0.0453
11 | GTGAGATA | -0.125
12 | AAACAGGC | -0.201
13 | GGAGAGAA | -0.218
14 | AAGAACAA | 0.0297
15 | ATGGTACC | -0.257
16 | GAACCTGC | 0.115
17 | AAGCCGTC | -0.0182
18 | ACTGTCAT | -0.11
19 | AGATTTAC | 0.0747
20 | ATGGAAGG | -0.326
21 | GATCCGTA | 0.343
22 | CCTTGAGC | -0.197
23 | CTTCGATC | 0.0841
24 | TGCACACA | 0.0289
25 | CACAACGG | -0.161

Row | Sequence | PBM E-score
26 | CATGGCCG | -0.144
27 | TGGTAGAA | -0.154
28 | TAAAAGAA | 0.247
29 | CCCTACCG | -0.194
30 | CATACTGC | -0.0808
31 | CAGGCGGG | -0.208
32 | CAAGAATA | -0.0513
33 | ATCTACGC | 0.0599
34 | ATGACTCA | 0.029
35 | CTTCGAAA | -0.0154
36 | AAGTGAGG | -0.123
37 | ACAGTCAT | -0.254
38 | AACAGTCA | -0.205
39 | ACCGCTCC | -0.0981
40 | CGGTAACC | 0.153
41 | AGTGGCAC | -0.2
42 | GTTCAAAC | 0.178
43 | ATGAAGAG | -0.119
44 | CAGCCTGA | -0.229
45 | CCCATAAA | -0.0286
46 | ACTTTTAC | 0.276
47 | GTCAGAGA | -0.194
48 | TTATGGAA | -0.0191
49 | ATGCAAAC | 0.157
50 | ATTGACGA | 0.031

Row | Sequence | PBM E-score
51 | TACGCTGA | 0.268
52 | AGCACGGC | -0.0241
53 | ACAGGAGT | -0.199
54 | GAGTCCCC | -0.401
55 | ATCCAATC | -0.083
56 | ACTTAGAA | 0.119
57 | AATCTTAA | 0.0256
58 | CGGCGAAA | 0.148
59 | CGGGCTGA | -0.0843
60 | AGACTTAA | -0.021
61 | AGAAATAA | -0.0255
62 | AATGGTGA | -0.152
63 | GCCATAGA | -0.0542
64 | GTGGGCTA | -0.128
65 | AGAAGTCG | -0.0197
66 | CATGTCTA | -0.179
67 | ACATGCAT | 0.0115
68 | CCCACCGG | -0.166
69 | GTGGATGA | -0.213
70 | ATCCGGAG | 0.00834
71 | CGCCTGTA | -0.0476
72 | AATAAATG | 0.013
73 | AAACAATG | 0.0166
74 | GATGCTTA | -0.0276
75 | AGTCAACC | -0.073

Row | Sequence | PBM E-score
76 | GGCTGCAC | -0.118
77 | GGCATTAA | 0.0625
78 | AAGTATCT | -0.0174
79 | GCGCAGAA | -0.0278
80 | CGTAGGAG | 0.129
81 | ACTGGTCC | -0.0492
82 | CACGTCAG | -0.202
83 | ATAACTAA | -0.0559
84 | ATGTTTAC | 0.172
85 | AAACCTTG | -0.371
86 | TCCATCAA | -0.0944
87 | GGAGGTGA | -0.0372
88 | GAACAGAC | -0.00742
89 | GTTGGGAA | -0.0141
90 | GGGATATA | -0.193
91 | AGCCGGGC | -0.0832
92 | CGCTCAAC | 0.126
93 | ACATTCGA | 0.0307
94 | ATAATAAT | 0.0597
95 | AGCAGGAT | -0.212
96 | ACCCCCGC | -0.233
97 | AGCCCCGA | -0.17
98 | ATCATAAG | 0.0881
99 | TAGGCCAA | -0.123
100 | GAGCAGGC | -0.146

Row | Sequence | PBM E-score
101 | AAAGTATT | -0.149
102 | CGGTGTAA | 0.15
103 | CACGCGCC | -0.158
104 | GGTATAGA | 0.111
105 | GTGGGTAA | -0.183
106 | GACAGGCA | -0.0853
107 | ACTGAAGT | -0.0535
108 | ATTCGATC | 0.0986
109 | ATCACGGC | -0.0304
110 | GTTCCTGA | 0.0703
111 | AGTGACGC | 0.0137
112 | AATATGAT | -0.0941
113 | CGCTTTTA | 0.0813
114 | ACGATCGA | 0.294
115 | AGTGCAGC | -0.22
116 | GCTTAACC | 0.0126
117 | AACCACTA | -0.0891
118 | GGACGGGA | -0.0849
119 | GAGTAAGA | -0.00183
120 | CCGTCTCG | 0.174
121 | GTGCCGGA | -0.103
122 | CTAGAGGC | -0.129
123 | TACAGTGA | -0.0988
124 | AGCAAGGC | -0.12
125 | CCAATCGC | -0.0252

Row | Sequence | PBM E-score
126 | ACCCTTGG | -0.211
127 | TCCAGCCA | -0.231
128 | TGCAGGCA | -0.105
129 | AGATGCTA | 0.00425
130 | ACACGTGG | -0.174
131 | AAATGCAT | -0.0482
132 | ATGACAGG | -0.132
133 | CTGTCGGA | 0.0382
134 | GGCATAAC | -0.0916
135 | AACATGGG | -0.11
136 | ACAAGTCA | -0.0319
137 | CGAAACAC | 0.0965
138 | GACTTCCC | -0.209
139 | GCTCGACA | -0.151
140 | CAGGCCTC | -0.293
141 | CACGATTC | 0.258
142 | AACAAGGC | -0.167
143 | CGCATAAC | 0.238
144 | ATTACGTC | -0.0126
145 | AACTTGCT | -0.304
146 | TATTCCGA | 0.0382
147 | ACCTGGAG | -0.161
148 | TACTGCAA | 0.00266
149 | CAGACAGG | -0.078
150 | GGCGATCA | -0.12

Row | Sequence | PBM E-score
151 | AGATTGGA | -0.163
152 | CCTATACC | 0.167
153 | CGCCAAAC | 0.108
154 | GAACCTAA | -0.0948
155 | GGAGGGAA | -0.19
156 | CCGATATC | 0.0326
157 | AAGGGCTG | -0.332
158 | GAAGATGC | -0.128
159 | AATACAAA | 0.118
160 | ACGCGGTG | 0.042
161 | AACACCTC | -0.0661
162 | CGCATCGA | 0.0973
163 | AGCCAGCT | -0.0464
164 | TATCACCA | 0.0386
165 | GGTACAAA | 0.0128
166 | CTCGATGA | -0.0714
167 | AATTGCCA | -0.125
168 | ATTGTCCG | -0.0457
169 | CCATAGCG | -0.0286
170 | CATGAGCC | -0.215
171 | AATCACTA | 0.0266
172 | ATTGGGGA | -0.134
